Over roughly 33,000 sequences, “E-score (-0.5 to 0.5)” has its median near -0.041; the highest 2% begin near 0.37. This is one part of the list.

This assay has as its target T1, Ecm22 (UniProt Q05958).
T1 sequence: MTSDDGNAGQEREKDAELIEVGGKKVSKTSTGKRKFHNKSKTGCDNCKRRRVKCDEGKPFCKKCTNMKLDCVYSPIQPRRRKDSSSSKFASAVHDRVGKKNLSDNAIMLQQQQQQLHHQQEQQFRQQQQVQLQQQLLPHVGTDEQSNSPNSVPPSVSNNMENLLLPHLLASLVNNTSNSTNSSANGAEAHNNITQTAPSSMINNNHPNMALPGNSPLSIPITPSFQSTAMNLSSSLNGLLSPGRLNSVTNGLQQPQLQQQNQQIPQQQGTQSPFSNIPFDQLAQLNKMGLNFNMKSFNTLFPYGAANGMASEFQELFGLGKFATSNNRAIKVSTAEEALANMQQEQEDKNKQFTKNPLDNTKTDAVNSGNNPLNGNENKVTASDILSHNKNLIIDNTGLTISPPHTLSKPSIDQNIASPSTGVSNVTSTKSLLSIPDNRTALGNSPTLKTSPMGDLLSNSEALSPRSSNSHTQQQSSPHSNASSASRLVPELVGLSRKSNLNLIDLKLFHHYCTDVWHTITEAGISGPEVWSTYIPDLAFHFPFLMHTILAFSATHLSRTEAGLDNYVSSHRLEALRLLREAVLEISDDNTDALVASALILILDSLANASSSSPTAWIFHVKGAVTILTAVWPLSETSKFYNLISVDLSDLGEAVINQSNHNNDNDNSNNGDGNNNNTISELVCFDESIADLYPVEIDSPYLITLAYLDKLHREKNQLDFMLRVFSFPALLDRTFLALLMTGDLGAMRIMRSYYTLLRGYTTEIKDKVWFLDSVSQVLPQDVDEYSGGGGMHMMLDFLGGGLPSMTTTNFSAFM
Nature of the assay: PBM E-score (8-mer binding enrichment) (E-score (-0.5 to 0.5)); higher = stronger / more preferred TF binding; most listed sequences are background and not binding sites. The note with it: protein concentration: 200 nM; construct: GST-full length. As to the method: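 Universal 'all 10-mer' protein binding microarrays (Agilent AMADID 015681) probed with GST-tagged S. cerevisiae TFs (full-length or DBD) made by in vitro transcription/translation (PURExpress), about 100-200 nM. Bound TF was detected with fluorescent anti-GST. Each ungapped 8-mer (which stands for itself and its reverse complement) is scored by the PBM enrichment score (E-score), a modified Wilcoxon-Mann-Whitney statistic from -0.5 to +0.5, computed with the Universal PBM Analysis Suite. Scale: above 0.35 generally sequence-specific binding.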
Consider AGATTAAA, for which the “PBM E-score” value is -0.0693.
With CCAGCCGC, the “PBM E-score” value came to 0.128.
The result for AGAGTACG reads 0.257; that for TCCGTTCA, 0.264.
As for GTAGTATA, the “PBM E-score” value is 0.213.
Under AAATGGCA stands -0.00674.
The result for AAGGCTTA reads -0.0548; that for CATGCTCG, 0.0753; that for CAAAGGGC, -0.286.
For the sequence ATGGGACG, the “PBM E-score” value was -0.0744.
The result for CCGCAGCA reads -0.152.
Under ATTACCTG stands -0.0898.
Under CTTTTAAA stands 0.0526; under AAGGCCGT, 0.224; under AGGCGCCG, 0.0406.
For AGTGTTAC, the “PBM E-score” value is 0.062.
The result for ACCGCATG reads -0.072; that for ACGCTTGA, -0.0655; that for CATGCGCC, -0.145.
The result for AATTGCAA reads 0.0197; that for CCCAGCGC, -0.0801.
The result for ATGACGTC reads 0.0822.
As to AATTGATG, the “PBM E-score” value is 0.0998.
Under AACAGGTT stands -0.0421; under CAATCAGC, -0.158; under AGTTCATG, -0.0381.
For the sequence ACTGCCAA, the “PBM E-score” value worked out at 0.0137.
The result for AGTTGATC reads 0.131; that for AGGAGAAT, 0.0698; that for AGAATATC, -0.051.
For ACGAACGA, the “PBM E-score” value was found to be 0.447.
In the case of AAGGTCTC, the “PBM E-score” value was -0.14.
Under ATCTAAAC stands 0.113; under GCAACGAA, 0.406; under TTCGCAAA, 0.291.
For the sequence AACCCCTG, the “PBM E-score” value is -0.151.
For AGACGTGA, the “PBM E-score” value is -0.0624.
Under ATCAATGG stands -0.242.
CGTCATGC: the “PBM E-score” value is -0.0684.
The result for AACTGAGC reads 0.0143.
The result for CCGATAGG reads -0.0184; that for GTTTGTGA, -0.0355.
Under AGACATGG stands 0.00126.
For the sequence ATTTCAAA, the “PBM E-score” value is -0.169.
Under AATAGCTG stands -0.194; under CACGCGCA, -0.0323; under CCTCCGCC, -0.24.
The result for GGTGGGAA reads 0.0319; that for ATCCTTGA, -0.0912.
The result for CGAGATGC reads 0.158; that for GGGACCCA, -0.0963.
Turning to ACCCTCAA, the “PBM E-score” value is -0.203.
Under ATATCAGG stands -0.174.
Under AATTTCCG stands 0.247.
The result for TACTGTAA reads 0.119; that for CGCCATGA, -0.217.
For the sequence ATTGTCTC, the “PBM E-score” value is -0.0281.
Under TGAAACCA stands -0.175; under CTATAGTA, -0.0956; under AGTAGGCG, -0.00833.
Turning to CAACTCGA, the “PBM E-score” value is -0.0476.
Under ACGACTGA stands 0.283.
The result for CGGTGGAG reads 0.156; that for CTCAAGCC, -0.099; that for CGGCCGAA, -0.0209.
The result for GAGAGAGC reads 0.068; that for AGCCTTAT, -0.0126; that for GACGGACA, 0.0517.
With GGGATCAA, the “PBM E-score” value was -0.128.
The result for AAGTAATT reads -0.0507.
The result for AGGCCGTG reads -0.255.
For ATTATTTC, the “PBM E-score” value was determined as 0.104.
The result for CCTCCCAG reads -0.239; that for CACAACGC, -0.0388.
For AGTAGCTA, the “PBM E-score” value was -0.0708.
Under CTATCCAG stands -0.218.
Under GAATGCGA stands 0.24.
The result for AGCATACA reads -0.0251.
As for GTTTCGGA, the “PBM E-score” value was 0.215.
Consider GGTAGCAC, for which the “PBM E-score” value is -0.275.
Under CGACACTA stands 0.0746.
The result for AGAACAAC reads -0.0888; that for CATTTATA, -0.00296; that for GCCGTGGA, -0.0482.
Under AAGCCCTT stands -0.253; under CATACCCA, -0.188.
Take AGGGGACG: the “PBM E-score” value was -0.24.
Take CTGGTTCA: the “PBM E-score” value is -0.179.
The result for GTGTACGA reads 0.481; that for ACAAGCAC, -0.11.
Under AAAAAGTG stands -0.0144.
Under CCGGTCGC stands 0.209.
Regarding ATAGTGAT, the “PBM E-score” value amounted to 0.176.
On to CCTGAAAA, for which the “PBM E-score” value was -0.0855.
